{"source": "ChEMBL document CHEMBL4888484", "about": "“Replenishing the malaria drug discovery pipeline: Screening and hit evaluation of the MMV Hit Generation Library 1 (HGL1) against asexual blood stage Plasmodium falciparum ,using a nano luciferase reporter read-out” (2022)", "note": "The campaign covered roughly 150,000 compounds. About 540 (0.36%) showed an effect of 50% or more. This is one part of the list."}
{"system": "Plasmodium falciparum", "assay": "Primary screen in NF54 nanoGlo assay, in single point, at 2uM, 72h; a lower Z score goes with more inhibition", "format": "functional, Erythrocyte", "settings": "timepoint 72 hour", "units": {"% Inhibition": "%"}}
{"compound": "CCc1nn(C)c(=O)c2cc(S(=O)(=O)Nc3ccc(OC)cc3)cn12", "% Inhibition": -10, "Z score": 1.33}
{"compound": "COCCNC(=O)NC[C@@H](c1cccs1)N1CCC(C)CC1", "% Inhibition": -6, "Z score": 0.97}
{"compound": "Cc1nc2nc(CN(C)C[C@H]3CCCO3)cc(O)n2n1", "% Inhibition": -6, "Z score": 1.2}
{"compound": "COc1cc(OC)nc(C(=O)N2CCCCc3cccnc32)n1", "% Inhibition": 6, "Z score": -0.77}
{"compound": "N#Cc1cccnc1N[C@H]1CCCN(CCCc2ccccc2)C1", "% Inhibition": 6, "Z score": -0.89}
{"compound": "Cc1cc(C(=O)N(C)C2C(C)CN(Cc3ccccc3)CC2C)[nH]n1", "note": "(stereo not drawn)", "% Inhibition": -6, "Z score": 0.68}
{"compound": "CC1(C)NC(=O)N([C@@H]2COC3(CCC3)C2)C1=O", "% Inhibition": -7, "Z score": 1.36}
{"compound": "Cn1nccc1[C@@H]1OCCC[C@H]1CNc1ncccc1C(=O)O", "% Inhibition": -12, "Z score": 1.55}
{"compound": "Cc1cc(C)cc(-n2nc(C)cc2NC(=O)NCCn2ccnn2)c1", "% Inhibition": -11, "Z score": 1.11}
{"compound": "CCCCN(C)c1ccnc(C(=O)NCCN2C(=O)CCCC2=O)c1", "% Inhibition": -11, "Z score": 1.44}
{"compound": "O=C(c1ccnnc1)N1CCCCC[C@H]1c1ccccc1", "% Inhibition": -15, "Z score": 1.75}
{"compound": "C[C@H]1c2ccsc2CCN1C(=O)c1ccc2c(c1)CCC(=O)N2", "% Inhibition": -5, "Z score": 0.8}
{"compound": "CCOc1nc2c(c(C)nn2-c2ccc(C)cc2)c(C)c1CCC(=O)NCc1ccc(F)cc1", "% Inhibition": -6, "Z score": 0.82}
{"compound": "CCN(Cc1ccccn1)C(=O)N[C@H]1CCN(Cc2cc(OC)cc(OC)c2)C1", "% Inhibition": 2, "Z score": -0.25}
{"compound": "Cc1scc(C(=O)N2CCN(C3CCCCC3)CC2)c1C", "% Inhibition": 1, "Z score": -0.22}
{"compound": "COc1ccc(Cl)cc1-n1cc(S(=O)(=O)N[C@H]2CCCNC2)cn1", "% Inhibition": -15, "Z score": 1.82}
{"compound": "N#Cc1ccc(C(=O)N[C@H]2CC[C@H](Oc3ncc(F)cn3)CC2)cc1", "% Inhibition": -14, "Z score": 2.31}
{"compound": "CC(C)(C)OC(=O)NCCNC(=O)[C@H]1CC(=O)N(c2n[nH]c3cccc(F)c23)C1", "% Inhibition": -15, "Z score": 1.89}
{"compound": "O=C(c1cccs1)N1CCC(n2cc(-c3ccncc3)nn2)CC1", "% Inhibition": -17, "Z score": 2.6}
{"compound": "Cc1ccc(NC(=O)CCCS(=O)(=O)N2CCCC2)cc1O", "% Inhibition": -6, "Z score": 0.58}
{"compound": "O=C1CCC(=O)N1C1CC2CCC(C1)N2C(=O)c1cccc(Oc2ccc(F)cc2)c1", "note": "(stereo not drawn)", "% Inhibition": 0, "Z score": 0}
{"compound": "Cc1ccc2cc(C(=O)NC3(CN4CCCC4)CCCCC3)n(C)c2c1", "% Inhibition": 1, "Z score": -0.1}
{"compound": "COc1ccc(Cl)cc1C(=O)[C@H]1CCCN(C(=O)CN2CCCC2)C1", "% Inhibition": 2, "Z score": -0.43}
{"compound": "Cc1ccn(CCCS(=O)(=O)C(C)C)c(=O)c1", "% Inhibition": -13, "Z score": 2.55}
{"compound": "Cc1nc([C@H](C)N(C)C(=O)N2CCN(C)CC2)c(C)s1", "% Inhibition": -5, "Z score": 0.86}
{"compound": "c1ccc(-c2cc(N3CCCCCC3)n[nH]2)cc1", "% Inhibition": -7, "Z score": 0.94}
{"compound": "CCN(C(=O)c1ccsc1)C1CCCCC1", "% Inhibition": 2, "Z score": -0.16}
{"compound": "O=S(=O)(c1cnn(CC(F)F)c1)N(CCc1ccccc1)C1CCCC1", "% Inhibition": -6, "Z score": 0.89}
{"compound": "C=CCNC(=O)[C@@H]1CCN(c2cccc3ccccc23)C1=O", "% Inhibition": -7, "Z score": 1.18}
{"compound": "CC(C(=O)N1CCCCC1c1ncon1)C1CC1", "note": "(stereo not drawn)", "% Inhibition": -3, "Z score": 0.57}
{"compound": "CC[C@@H]1Oc2ccc(NC(=O)c3cccc(OC)c3)cc2CN(Cc2cccc(OC)c2)C1=O", "% Inhibition": -3, "Z score": 0.51}
{"compound": "CCOC(=O)Cc1csc(NC(=O)CCC2CCCCC2)n1", "% Inhibition": -8, "Z score": 1.03}
{"compound": "CC(C)CN1CC2(CCN(C(=O)c3cnc(C4CC4)nc3)CC2)CC1=O", "% Inhibition": 7, "Z score": -0.94}
{"compound": "Cc1cc(C(=O)O[C@@H](C)C(=O)N2CCCCCC2)c(C)n1Cc1ccc(S(N)(=O)=O)cc1", "% Inhibition": 2, "Z score": -0.32}
{"compound": "CC[C@H]1COCCN1C(=O)Nc1nc2c(s1)CCCC2", "% Inhibition": -17, "Z score": 2.5}
{"compound": "Cc1cc(C(=O)N2CCOc3ccccc3[C@@H]2CO)[nH]n1", "% Inhibition": -2, "Z score": 0.28}
{"compound": "Cc1cccc(CN2CCc3ccc(OC(C)C(=O)NCc4cccc(F)c4)cc3C2c2ccccc2)c1", "note": "(stereo not drawn)", "% Inhibition": -5, "Z score": 0.75}
{"compound": "Cc1cccc(S(=O)(=O)Nc2ccc3c(c2)C(=O)N(C)c2cc(C)ccc2O3)c1", "% Inhibition": -11, "Z score": 1.27}
{"compound": "CN1c2ncccc2CN(Cc2c[nH]c3ccccc23)CC[C@H]1CO", "% Inhibition": 3, "Z score": -0.47}
{"compound": "Cc1cc(N2CCCCCC2)n2nc(-c3ccccc3C)nc2n1", "% Inhibition": -16, "Z score": 2.89}
{"compound": "Cc1ccc(-n2nc(C(=O)NCc3ccco3)c(=O)n([C@@H](C)c3ccccc3)c2=O)cc1F", "% Inhibition": -17, "Z score": 1.68}
{"compound": "COCC1(NC(=O)c2cccc(-c3ccc(F)c(C(N)=O)c3)c2)CCCC1", "% Inhibition": 5, "Z score": -0.84}
{"compound": "COC1(CNC(=O)c2ccccc2C(C)=O)CCC1", "% Inhibition": 3, "Z score": -0.39}
{"compound": "N#Cc1ccnc(O[C@H]2CCCN(C(=O)CN3C(=O)CCC3=O)C2)c1", "% Inhibition": -2, "Z score": 0.41}
{"compound": "Cc1cc(C)nc(NCCc2cccs2)n1", "% Inhibition": -8, "Z score": 1.34}
{"compound": "CCc1nc(C)c(C(=O)N[C@@H](C)C(C)(C)C)s1", "% Inhibition": -6, "Z score": 0.55}
{"compound": "COc1ccccc1CNC(=O)c1cc(C)c2c(c1)-c1ccccc1S(=O)(=O)N2C", "% Inhibition": -12, "Z score": 1.47}
{"compound": "COCCC(=O)NCCc1ncc(C)n1C1CCCCCCC1", "% Inhibition": -1, "Z score": 0.16}
{"compound": "CC[C@@H](CNC(=O)NCc1cccnc1)Oc1ccccc1", "% Inhibition": 2, "Z score": -0.22}
{"compound": "Cn1nc2cc(Br)ccc2c1C(=O)N1CC(n2ccnn2)C1", "% Inhibition": -5, "Z score": 0.57}
{"compound": "Cc1ccc2c(c1)OCCN2Cc1cc(C(N)=O)cs1", "% Inhibition": -17, "Z score": 1.75}
{"compound": "Cc1cc(C)cc(CN2CCN(C(=O)c3cnn[nH]3)CC2=O)c1", "% Inhibition": -9, "Z score": 1.61}
{"compound": "Cn1nc(CC2CCN(Cc3ccoc3)CC2)n(-c2ccccc2)c1=O", "% Inhibition": 0, "Z score": -0.04}
{"compound": "O=C(NCCOCCn1ccnc1)c1cncc(F)c1", "% Inhibition": -5, "Z score": 0.55}
